This is one part of the list.
These sequences were tested against T1, MBP-FoxP1dN (Mus musculus, UniProt P58462 326-579) (assay: PD-seq (MBP pull-down with sequencing); 20 mM Tris-HCl pH 7.5, 100 mM NaCl, 1.5 mM MgCl2, 0.4 uM protein, 0.1 uM dsDNA library, 30 min, room temperature, amylose pull-down; high values mean tight binding). Conditions: protein: recombinant; tags: His6-MBP; chain copies: 2; dsDNA, one strand shown.
T1 sequence: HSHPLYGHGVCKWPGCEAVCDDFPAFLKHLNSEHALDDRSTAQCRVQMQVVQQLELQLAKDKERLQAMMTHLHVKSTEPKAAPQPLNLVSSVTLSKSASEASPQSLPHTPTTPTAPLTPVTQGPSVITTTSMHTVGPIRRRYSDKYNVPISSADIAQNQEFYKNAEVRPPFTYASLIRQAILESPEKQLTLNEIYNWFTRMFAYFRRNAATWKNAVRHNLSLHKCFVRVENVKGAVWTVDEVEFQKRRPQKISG
Procedure, shortened: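 A fragment of mouse FoxP3 or FoxP1 without its N-terminus, carrying a His6-MBP tag and produced in E. coli, was combined at 0.4 µM with a 0.1 µM degenerate double-stranded DNA library filled in with Klenow. The mixture sat for 30 min at room temperature in Tris pH 7.5 buffer containing NaCl and MgCl2. Protein–DNA complexes were captured on amylose resin, washed three times, and the DNA was freed with proteinase K, barcoded by PCR and sequenced on Illumina. Binding is expressed as reads-per-million enrichment of pull-down over input, with replicates pooled.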
“GATGATTGTTCTCCCAGCTGATGAATTGTACCACTCGAGTAAACAAATTTTCCTAATCTTTCTGTTCAAGCGCCATCTAC” was tested, and the binding signal was 0.996 RPM ratio (pull-down/input).
In the case of “GATGATTGTTCTCCCAGCTGATGAATTTCCCGAATCGAGTAAACAAATTTTCCTAATCTTTCTGTTCAAGCGCCATCTAC”, the binding signal is reported as 0.935 RPM ratio (pull-down/input).
In the case of “GATGATTGTTCTCCCAGCTGATGAATTTGGTGAATCGAGTAAACAAATTTTCCTAATCTTTCTGTTCAAGCGCCATCTAC”, the binding signal is reported as 0.965 RPM ratio (pull-down/input).
With “GATGATTGTTCTCCCAGCTGATGAATTCGTGGCCTCGAGTAAACAAATTTTCCTAATCTTTCTGTTCAAGCGCCATCTAC” the binding signal was 0.842 RPM ratio (pull-down/input).
“GATGATTGTTCTCCCAGCTGATGAATTCTCCATATCGAGTAAACAAATTTTCCTAATCTTTCTGTTCAAGCGCCATCTAC” was tested, and the binding signal was 0.912 RPM ratio (pull-down/input).
With “GATGATTGTTCTCCCAGCTGATGAATTCGTCCAATCGAGTAAACAAATTTTCCTAATCTTTCTGTTCAAGCGCCATCTAC” the binding signal was 1.02 RPM ratio (pull-down/input).
“GATGATTGTTCTCCCAGCTGATGAATTCCGCCTCTCGAGTAAACAAATTTTCCTAATCTTTCTGTTCAAGCGCCATCTAC” was tested, and the binding signal was 0.915 RPM ratio (pull-down/input).
For “GATGATTGTTCTCCCAGCTGATGAATTATTCGGTTCGAGTAAACAAATTTTCCTAATCTTTCTGTTCAAGCGCCATCTAC”, the binding signal was 0.917 RPM ratio (pull-down/input).
“GATGATTGTTCTCCCAGCTGATGAATTTGCTGTATCGAGTAAACAAATTTTCCTAATCTTTCTGTTCAAGCGCCATCTAC” was tested, and the binding signal was 1.16 RPM ratio (pull-down/input).
“GATGATTGTTCTCCCAGCTGATGAATTTACACTGTCGAGTAAACAAATTTTCCTAATCTTTCTGTTCAAGCGCCATCTAC” was tested, and the binding signal was 1.27 RPM ratio (pull-down/input).
With “GATGATTGTTCTCCCAGCTGATGAATTCATCGGTTCGAGTAAACAAATTTTCCTAATCTTTCTGTTCAAGCGCCATCTAC” the binding signal was 0.902 RPM ratio (pull-down/input).
In the case of “GATGATTGTTCTCCCAGCTGATGAATTTGGCGGCTCGAGTAAACAAATTTTCCTAATCTTTCTGTTCAAGCGCCATCTAC”, the binding signal is reported as 0.754 RPM ratio (pull-down/input).
In the case of “GATGATTGTTCTCCCAGCTGATGAATTGTGCAGATCGAGTAAACAAATTTTCCTAATCTTTCTGTTCAAGCGCCATCTAC”, the binding signal is reported as 1.02 RPM ratio (pull-down/input).
“GATGATTGTTCTCCCAGCTGATGAATTAGGACGTTCGAGTAAACAAATTTTCCTAATCTTTCTGTTCAAGCGCCATCTAC” was tested, and the binding signal was 0.889 RPM ratio (pull-down/input).
With “GATGATTGTTCTCCCAGCTGATGAATTTATCGAGTCGAGTAAACAAATTTTCCTAATCTTTCTGTTCAAGCGCCATCTAC” the binding signal was 1.02 RPM ratio (pull-down/input).
In the case of “GATGATTGTTCTCCCAGCTGATGAATTCTTACGATCGAGTAAACAAATTTTCCTAATCTTTCTGTTCAAGCGCCATCTAC”, the binding signal is reported as 0.938 RPM ratio (pull-down/input).
“GATGATTGTTCTCCCAGCTGATGAATTGCGTGGTTCGAGTAAACAAATTTTCCTAATCTTTCTGTTCAAGCGCCATCTAC” was tested, and the binding signal was 1.04 RPM ratio (pull-down/input).
With “GATGATTGTTCTCCCAGCTGATGAATTTTGCAGGTCGAGTAAACAAATTTTCCTAATCTTTCTGTTCAAGCGCCATCTAC” the binding signal was 0.854 RPM ratio (pull-down/input).

Source: PMC12820563, “FoxP3 forms a head-to-head dimer in vivo and stabilizes its multimerization on adjacent microsatellites”
